The structures appear in SMILES notation. Among all 48,000 compounds or so, about 550 (1.1%) were called active. Inconclusive results (about 4%) are left out. Rule as the data show it: active = potency below about 15 µM; inconclusive = mostly about 16 µM to 33 µM; inactive = weaker than that. Some of the results follow.
Potency is read from the fitted curve at half-maximal effect.

Sequence of UniProt P04062 (P04062 whole entry, looked up): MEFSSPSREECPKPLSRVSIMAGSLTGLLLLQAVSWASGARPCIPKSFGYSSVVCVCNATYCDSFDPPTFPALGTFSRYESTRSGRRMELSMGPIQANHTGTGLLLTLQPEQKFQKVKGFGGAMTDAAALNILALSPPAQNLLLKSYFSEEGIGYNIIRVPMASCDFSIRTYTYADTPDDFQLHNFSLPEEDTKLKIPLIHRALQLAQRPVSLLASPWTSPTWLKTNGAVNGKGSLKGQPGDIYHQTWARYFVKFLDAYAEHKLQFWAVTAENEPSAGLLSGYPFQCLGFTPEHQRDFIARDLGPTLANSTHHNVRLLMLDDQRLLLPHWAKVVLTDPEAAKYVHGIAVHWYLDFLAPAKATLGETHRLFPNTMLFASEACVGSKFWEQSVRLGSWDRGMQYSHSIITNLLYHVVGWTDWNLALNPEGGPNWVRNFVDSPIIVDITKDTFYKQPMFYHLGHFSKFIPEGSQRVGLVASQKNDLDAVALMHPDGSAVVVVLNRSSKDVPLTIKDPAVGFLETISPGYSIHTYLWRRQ

This assay addresses Lysosomal acid glucosylceramidase (Homo sapiens) (UniProt P04062). Briefly: Glucocerebrosidase.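 Also: the screen sought inhibitors.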 The note with it: purified enzyme, resorufin glucoside fluorescence (screen aimed at inhibitors), 20 min. A digest of the protocol:
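Normal human glucocerebrosidase (0.2 nM final) was assayed with resorufin β-D-glucopyranoside (30 uM final) in 50mM citric acid/KH2PO4, 10mM sodium taurocholate, 0.01% tween-20, pH 5.9. Compounds were titrated; fluorescence (Ex 548, Em 600) read after 20 min at RT.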
Turning to `COc1cccc(C2=CC(c3ccc(C)cc3)n3ncnc3N2)c1` (stereo not given), the Potency was inactive: > 76.9 µM.
To `Cn1nnc2cc(NC(=O)N3CCN(c4ccccn4)CC3)ccc21` belongs inactive: > 76.9 µM.
In the case of `Cc1cccc(OCc2n[nH]c(=S)o2)c1`, the Potency was inactive: > 76.9 µM.
To `CCOC(=O)C1=C(C)Nc2ncnn2C1c1ccccc1F` (stereo not given) belongs inactive: > 76.9 µM; to `Cc1nc(CSc2nnc3scc(-c4ccc(Cl)cc4)n23)cs1`, inactive: > 76.9 µM; to `Cc1ccc2c(COC(=O)C3=COCCO3)cc(=O)oc2c1`, inactive: > 76.9 µM.
To `C=CCN1C(=O)CN=C1Nc1cccc(C)c1` belongs inactive: > 76.9 µM; to `O=P(c1ccccc1)(c1ccccc1)C(c1ccco1)N1CCOCC1` (stereo not given), inactive: > 76.9 µM.
To `COc1cc(C#CC#CCN2CCCCC2)ccc1O` belongs inactive: > 76.9 µM.
Consider `O=C(c1ccco1)N1CCN(C(c2ccccc2F)c2nnnn2CC2CCCO2)CC1` (stereo not given), for which the Potency was inactive: > 76.9 µM.
To `Cc1ccc(S(=O)(=O)CCc2nnc(NC(=O)c3cnccn3)s2)cc1` belongs inactive: > 76.9 µM.
For `CC(=O)c1c(C)[nH]c(C(=O)CSc2nnc(C3CCCCC3)n2N)c1C` the value was inactive: > 76.9 µM; for `O=C(c1scc2c1CCCC2)N1CCCCC1`, inactive: > 76.9 µM; for `O=C1OC(NC(=O)c2ccccc2)C(N2CCOCC2)=C1Cl` (stereo not given), inactive: > 76.9 µM.
To `O=C(Cn1cc(C(=O)c2cccs2)c2ccccc21)NCC1CCCO1` (stereo not given) belongs inactive: > 76.9 µM.
Take `Cc1ccc(CS(=O)(=O)CCC(=O)N2CCOCC2)cc1`: the Potency was inactive: > 76.9 µM.
For `O=C(Nc1ccc(F)cc1Cl)c1ccc2c(=O)n3c(nc2c1)CCCCC3` the value was inactive: > 76.9 µM; for `COC(=O)CC1=C(C(=O)OC)C(c2cccs2)C(C#N)=C(N)O1` (stereo not given), inactive: > 76.9 µM.
For `CCCNC(=O)c1ccccc1NC(=O)CN(c1ccccc1OCC)S(C)(=O)=O` the value was inactive: > 76.9 µM.
Regarding `COc1ccc(OC)c(C2N(c3ccc(Cl)cc3)C(=O)C3CCCN32)c1` (stereo not given), the Potency was inactive: > 76.9 µM.
With `Cc1ccc(NCc2nnc(SCc3ccc(C#N)cc3)n2Cc2ccco2)c(C)c1`, the Potency was inactive: > 76.9 µM.
To `COc1ccc(-c2cc(C(F)(F)F)nc(SCC(=O)N3CC(C)OC(C)C3)n2)cc1OC` (stereo not given) belongs inactive: > 76.9 µM; to `CCOC(=O)C1C(=O)NCC2CCCC21` (stereo not given), inactive: > 76.9 µM; to `CCOc1cccc2c1OC1(C)CC2NC(=O)N1c1cccc(Cl)c1` (stereo not given), inactive: > 76.9 µM.
As for `CC(NC(=O)c1ccncc1)C(c1cccs1)N1CCOCC1` (stereo not given), the Potency is inactive: > 76.9 µM.
For `CCOC(=O)c1sc2nc3n(c(=O)c2c1C)CCC(C)CC3` (stereo not given) the value was inactive: > 76.9 µM; for `NC(=O)C1CCN(C(=O)N2c3ccccc3Sc3ccccc32)CC1`, inactive: > 76.9 µM.
For `O=C(NCc1nnc(SCC(=O)N2CCN(c3ccccc3)CC2)o1)c1ccco1` the value was inactive: > 76.9 µM; for `CCOC(=O)N1CCC(NC(=O)c2cc(C)c3c(C)nn(-c4ccccc4)c3n2)CC1`, inactive: > 76.9 µM; for `Cc1ccc2cccc(OCC(=O)NCc3ccco3)c2n1`, inactive: > 76.9 µM.
With `CC1Cc2ccccc2N1C(=O)C1CCN(S(=O)(=O)Cc2ccccc2)CC1` (stereo not given), the Potency is inactive: > 76.9 µM.
Turning to `CCOC(=O)N1CCC(NC(=O)CSc2cc(=O)n(C)c3ccccc23)CC1`, the Potency is inactive: > 76.9 µM.
Take `COC(=O)c1cccc(N2C(=O)c3cccnc3C2=O)c1`: the Potency is inactive: > 76.9 µM.
For `COc1ccc(-c2noc(CSc3nnc(CCc4ccccc4)n3-c3ccccc3)n2)cc1OC`, the Potency is inactive: > 76.9 µM.
Regarding `O=[n+]1c2c(n([O-])c3cc(F)ccc31)CCCC2`, the Potency is inactive: > 76.9 µM.
Turning to `CCOc1ccc2nc(NC(=O)C3CCCN(S(=O)(=O)c4cccs4)C3)sc2c1` (stereo not given), the Potency was inactive: > 76.9 µM.
Turning to `c1coc(CN(Cc2cccs2)Cc2nnnn2C2CCCCC2)c1`, the Potency was inactive: > 76.9 µM.
To `Cc1cc(C)c2[nH]c(=O)c(CN(Cc3ccc4c(c3)OCO4)Cc3nnnn3C3CCCC3)cc2c1` belongs inactive: > 76.9 µM.
For `COc1cc(Cl)c(S(=O)(=O)N2CCOCC2)cc1Cl` the value was inactive: > 76.9 µM.
Take `Cc1cc(C)c(-c2cc(C(=O)Nc3c(C)n(C)n(-c4ccccc4)c3=O)[nH]n2)c(O)c1`: the Potency is inactive: > 76.9 µM.
Take `Cc1cc(C)cc(-n2nnnc2SCC(=O)Nc2cccc(NC(=O)c3ccco3)c2)c1`: the Potency is inactive: > 76.9 µM.
To `O=C(CSc1nc2[nH]ncc2c(=O)n1-c1ccccc1)N1CCCc2ccccc21` belongs inactive: > 76.9 µM.
As to `NC(=O)c1ccc(-c2ccc(Br)cc2)o1`, the Potency was inactive: > 76.9 µM.
For `CCOC(=O)CSCc1c(C#N)c2ccccc2n1C` the value was inactive: > 76.9 µM; for `O=C(c1ccncc1)c1ccc(N2CCN(C3CC(=O)N(Cc4ccccc4)C3=O)CC2)cc1` (stereo not given), inactive: > 76.9 µM.
For `COC(=O)CC1NCCNC1=O` (stereo not given) the value was inactive: > 76.9 µM.
For `CCS(=O)(=O)N1CCC(C(=O)NCCCOC)CC1` the value was inactive: > 76.9 µM; for `O=C(CSc1nnnn1-c1ccccc1)NC(=O)Nc1ccc2c(c1)OCCO2`, inactive: > 76.9 µM.
Regarding `C/C=C(\C)CN1CCc2cc(OC)c(OC)cc2C1`, the Potency is inactive: > 76.9 µM.
To `COc1ccc(C(O)c2coc3ccc(O)c(CN(C)C)c23)cc1` (stereo not given) belongs inactive: > 76.9 µM; to `COc1ccc(N2CCN(C(c3ccccc3)c3nnnn3Cc3ccc(F)cc3)CC2)cc1` (stereo not given), inactive: > 76.9 µM; to `CCN(CC)S(=O)(=O)c1ccc(NC(=O)CN(c2cccc(F)c2)S(C)(=O)=O)cc1`, inactive: > 76.9 µM.
Take `CCC(c1nc2ccccc2c(=O)n1-c1cccnc1)N1C(=O)c2ccccc2C1=O` (stereo not given): the Potency was inactive: > 76.9 µM.
To `CCn1c(C)nc2cc(C(=O)n3cc(C(=O)c4cc(F)ccc4O)cn3)ccc21` belongs inactive: > 76.9 µM; to `CCCN1CC=C2C(C#N)=C(N)C(C#N)(C#N)C(c3cccc(OC)c3OC)C2C1` (stereo not given), “inactive”; to `Cc1cc(C)nc(N2CCCC(C(=O)Nc3ccc4c(c3)OCCO4)C2)n1` (stereo not given), inactive: > 76.9 µM.
Turning to `COc1ccc(NC(=O)c2cccnc2N2CCCCC2)cc1`, the Potency is inactive: > 76.9 µM.
In the case of `CCc1nc(C)cn1S(=O)(=O)c1cc(OC)c(C)cc1C`, the Potency was inactive: > 76.9 µM.
With `CCn1c(SCC(=O)OC(C)C)nnc1-c1cccc(Cl)c1`, the Potency is inactive: > 76.9 µM.
To `CCCCOC(=O)C1=C(C)NC2=C(C(=O)CCC2)C1c1cc(OC)ccc1OC` (stereo not given) belongs inactive: > 76.9 µM; to `COC(=O)C1CCN(C(=O)Cc2ccc(OC)c(OC)c2)CC1`, inactive: > 76.9 µM; to `COc1cccc(/C=C/c2ccncc2)c1OC`, inactive: > 76.9 µM.
On to `O=C(O)C1CCCN1c1ncccn1` (stereo not given), for which the Potency was inactive: > 76.9 µM.
To `C=CCn1c(SCC(=O)NC(=O)NCC(C)C)nnc1C1CCCCC1` belongs inactive: > 76.9 µM.
In the case of `COc1cccc(C2CC(c3c(F)cccc3Cl)n3nc(N)nc3N2)c1` (stereo not given), the Potency is inactive: > 76.9 µM.
For `O=C(CNS(=O)(=O)c1ccc(F)cc1)N1CCN(c2ccc(F)cc2)CC1` the value was inactive: > 76.9 µM.
To `Cc1cc(C)n(-c2cccc(Cl)c2)c(=O)c1C#N` belongs inactive: > 76.9 µM; to `CC(C)Cn1c(N)c(C(=O)NCC2CCCO2)c2nc3ccccc3nc21` (stereo not given), inactive: > 76.9 µM; to `O=C1C2CCC(C(O)C2)N1Cc1ccccc1` (stereo not given), inactive: > 76.9 µM.
For the compound `O=c1cc(-c2ccccc2)nc2nc(CCc3ccccc3)[nH]n12`, the Potency was inactive: > 76.9 µM.
For `CCc1nnc(NC(=O)CSc2nnc(-c3ccccc3OC)n2-c2ccccc2)s1` the value was inactive: > 76.9 µM; for `COc1cccc(NC(=O)CN(C)S(=O)(=O)c2ccc(C)cc2)c1`, inactive: > 76.9 µM; for `Cn1c(CN2CCC(C(N)=O)CC2)c(C#N)c2ccccc21`, inactive: > 76.9 µM.
To `COc1ccc2[nH]cc(C(=O)CN3CCN(C(=O)c4ccco4)CC3)c2c1` belongs inactive: > 76.9 µM; to `COC(=O)C1CCN(C(=O)CN2C(=O)NC(CCc3ccccc3)C2=O)CC1` (stereo not given), inactive: > 76.9 µM; to `COc1ccccc1N1CCN(S(=O)(=O)c2ccccc2F)CC1`, inactive: > 76.9 µM.
Take `O=C(Nc1ccccc1OC(F)F)c1ccc(Br)o1`: the Potency was inactive: > 76.9 µM.
For the compound `COc1ccc2nc(NC(=O)C3CCCN(S(=O)(=O)c4cccs4)C3)sc2c1` (stereo not given), the Potency was inactive: > 76.9 µM.
To `CC(C)(C)n1ncc2c(=O)n(CC(=O)OCc3ccccc3)cnc21` belongs inactive: > 76.9 µM; to `CCOC(=O)C1CCN(C(=O)C2CCN(S(=O)(=O)CC)CC2)CC1`, inactive: > 76.9 µM.
On to `COc1cccc(CN(Cc2cccnc2)S(=O)(=O)c2ccc(-n3cnnn3)c(C)c2)c1OC`, for which the Potency was inactive: > 76.9 µM.
On to `Nc1nc(-c2ccco2)nc(N2CCCCC2)n1`, for which the Potency is inactive: > 76.9 µM.
Turning to `CCOC(=O)N1CCN(C(=O)CSc2nnc(Cc3cccn3C)n2CCc2ccccc2)CC1`, the Potency is inactive: > 76.9 µM.
On to `CCOC(=O)N1CCN(C(=O)C(NC(=O)C2CCC(C)CC2)C(C)C)CC1` (stereo not given), for which the Potency was inactive: > 76.9 µM.
As to `Cn1c(=O)c2c(nc(Br)n2CCSc2nnnn2-c2ccccc2)n(C)c1=O`, the Potency is inactive: > 76.9 µM.
To `CCn1nc(C)c(NC(=O)CCCSc2nc(-c3ccco3)cc(C(F)(F)F)n2)c1C` belongs inactive: > 76.9 µM; to `CC(C)OCC(O)CN` (stereo not given), inactive: > 76.9 µM.
Turning to `O=C1CC(SCc2nc3ccccc3[nH]2)C(=O)N1c1ccc(F)cc1` (stereo not given), the Potency is inactive: > 76.9 µM.
As for `CC(C)(C)n1nnnc1C(c1cc2cc3c(cc2[nH]c1=O)OCO3)N1CCN(c2ccccc2)CC1` (stereo not given), the Potency was inactive: > 76.9 µM.
In the case of `Cn1c(=O)c2c(nc(N3CCCCC3)n2CCNC2=NCCC2)n(C)c1=O`, the Potency is inactive: > 76.9 µM.

The record behind these values is PubChem BioAssay AID360 (National Center for Advancing Translational Sciences (NCATS), 2006).
